Measured values reported in publication PMC7315779.
Read-outs that look alike come from different tables or passages of the source. These are yes or no findings as the source states them, for the method shown. In cells and extracts the contact can be indirect. Some entries that bind do so weakly or less than the wild type. For some of these results: Tags and fused reporters may be left off the sequences shown. One block for each molecule: values may come before it.

Chains of the proteins cited; added tags and fusions are not shown. Residues count along the entry.
UniProt Q5S007: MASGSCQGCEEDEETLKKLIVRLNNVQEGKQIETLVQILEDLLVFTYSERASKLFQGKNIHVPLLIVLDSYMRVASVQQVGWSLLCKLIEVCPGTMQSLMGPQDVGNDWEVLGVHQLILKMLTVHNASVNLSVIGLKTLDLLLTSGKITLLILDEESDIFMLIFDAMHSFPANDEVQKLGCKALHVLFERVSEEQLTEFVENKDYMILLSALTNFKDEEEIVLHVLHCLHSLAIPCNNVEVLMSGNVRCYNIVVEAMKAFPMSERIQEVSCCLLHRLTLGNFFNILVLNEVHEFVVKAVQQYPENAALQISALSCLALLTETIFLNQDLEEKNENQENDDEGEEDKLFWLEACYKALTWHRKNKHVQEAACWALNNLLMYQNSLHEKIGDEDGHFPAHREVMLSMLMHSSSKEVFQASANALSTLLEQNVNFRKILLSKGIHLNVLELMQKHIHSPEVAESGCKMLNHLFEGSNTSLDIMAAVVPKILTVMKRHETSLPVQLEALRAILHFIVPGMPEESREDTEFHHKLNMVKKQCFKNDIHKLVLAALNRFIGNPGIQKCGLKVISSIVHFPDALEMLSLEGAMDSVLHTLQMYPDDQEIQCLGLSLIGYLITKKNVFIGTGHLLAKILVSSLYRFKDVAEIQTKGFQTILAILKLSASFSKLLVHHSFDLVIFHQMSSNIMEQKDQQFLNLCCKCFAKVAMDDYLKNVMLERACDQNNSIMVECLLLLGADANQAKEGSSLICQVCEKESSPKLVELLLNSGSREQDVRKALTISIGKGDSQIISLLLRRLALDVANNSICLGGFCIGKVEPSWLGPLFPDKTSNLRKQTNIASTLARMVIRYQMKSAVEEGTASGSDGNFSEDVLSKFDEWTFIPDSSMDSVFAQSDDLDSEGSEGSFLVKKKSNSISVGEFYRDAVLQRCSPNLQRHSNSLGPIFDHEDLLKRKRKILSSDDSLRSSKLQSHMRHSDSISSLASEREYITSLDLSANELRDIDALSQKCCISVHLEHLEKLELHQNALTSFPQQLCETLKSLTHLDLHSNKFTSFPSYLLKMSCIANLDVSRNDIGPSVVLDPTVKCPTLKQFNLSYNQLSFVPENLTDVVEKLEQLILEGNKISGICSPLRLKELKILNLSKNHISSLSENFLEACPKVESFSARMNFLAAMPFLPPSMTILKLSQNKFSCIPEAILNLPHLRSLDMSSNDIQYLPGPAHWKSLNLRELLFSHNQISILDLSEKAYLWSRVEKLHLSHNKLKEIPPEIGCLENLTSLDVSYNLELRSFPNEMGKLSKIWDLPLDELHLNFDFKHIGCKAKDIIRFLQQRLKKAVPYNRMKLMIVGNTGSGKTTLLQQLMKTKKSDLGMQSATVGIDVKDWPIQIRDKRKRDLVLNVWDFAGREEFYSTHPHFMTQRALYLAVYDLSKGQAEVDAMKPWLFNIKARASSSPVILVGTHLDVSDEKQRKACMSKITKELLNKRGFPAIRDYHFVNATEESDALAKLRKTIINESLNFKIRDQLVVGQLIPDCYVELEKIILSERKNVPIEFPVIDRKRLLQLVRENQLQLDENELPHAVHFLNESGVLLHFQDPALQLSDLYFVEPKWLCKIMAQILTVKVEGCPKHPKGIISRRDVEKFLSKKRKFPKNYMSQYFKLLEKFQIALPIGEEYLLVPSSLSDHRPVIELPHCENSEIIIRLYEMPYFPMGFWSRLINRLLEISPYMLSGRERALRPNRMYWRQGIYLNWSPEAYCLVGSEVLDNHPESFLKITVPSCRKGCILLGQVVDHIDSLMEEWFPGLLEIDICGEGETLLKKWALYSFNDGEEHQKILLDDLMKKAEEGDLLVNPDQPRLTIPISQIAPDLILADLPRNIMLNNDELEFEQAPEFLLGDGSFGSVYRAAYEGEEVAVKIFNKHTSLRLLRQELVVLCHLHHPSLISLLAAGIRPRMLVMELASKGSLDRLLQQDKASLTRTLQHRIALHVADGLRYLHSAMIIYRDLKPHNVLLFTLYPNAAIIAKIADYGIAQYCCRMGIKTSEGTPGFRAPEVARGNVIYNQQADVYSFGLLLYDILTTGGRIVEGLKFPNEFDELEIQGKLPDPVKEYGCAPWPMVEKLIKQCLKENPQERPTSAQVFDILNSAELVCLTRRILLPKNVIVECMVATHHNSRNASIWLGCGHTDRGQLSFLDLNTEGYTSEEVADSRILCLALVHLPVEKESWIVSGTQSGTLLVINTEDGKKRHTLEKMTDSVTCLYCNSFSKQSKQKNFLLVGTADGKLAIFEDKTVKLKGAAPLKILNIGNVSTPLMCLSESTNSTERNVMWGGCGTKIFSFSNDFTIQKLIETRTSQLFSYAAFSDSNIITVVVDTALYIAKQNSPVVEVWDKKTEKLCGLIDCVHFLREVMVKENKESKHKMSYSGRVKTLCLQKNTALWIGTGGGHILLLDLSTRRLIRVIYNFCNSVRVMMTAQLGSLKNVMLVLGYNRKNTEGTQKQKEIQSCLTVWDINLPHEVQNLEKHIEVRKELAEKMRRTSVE
UniProt P11717, residues 41-2491: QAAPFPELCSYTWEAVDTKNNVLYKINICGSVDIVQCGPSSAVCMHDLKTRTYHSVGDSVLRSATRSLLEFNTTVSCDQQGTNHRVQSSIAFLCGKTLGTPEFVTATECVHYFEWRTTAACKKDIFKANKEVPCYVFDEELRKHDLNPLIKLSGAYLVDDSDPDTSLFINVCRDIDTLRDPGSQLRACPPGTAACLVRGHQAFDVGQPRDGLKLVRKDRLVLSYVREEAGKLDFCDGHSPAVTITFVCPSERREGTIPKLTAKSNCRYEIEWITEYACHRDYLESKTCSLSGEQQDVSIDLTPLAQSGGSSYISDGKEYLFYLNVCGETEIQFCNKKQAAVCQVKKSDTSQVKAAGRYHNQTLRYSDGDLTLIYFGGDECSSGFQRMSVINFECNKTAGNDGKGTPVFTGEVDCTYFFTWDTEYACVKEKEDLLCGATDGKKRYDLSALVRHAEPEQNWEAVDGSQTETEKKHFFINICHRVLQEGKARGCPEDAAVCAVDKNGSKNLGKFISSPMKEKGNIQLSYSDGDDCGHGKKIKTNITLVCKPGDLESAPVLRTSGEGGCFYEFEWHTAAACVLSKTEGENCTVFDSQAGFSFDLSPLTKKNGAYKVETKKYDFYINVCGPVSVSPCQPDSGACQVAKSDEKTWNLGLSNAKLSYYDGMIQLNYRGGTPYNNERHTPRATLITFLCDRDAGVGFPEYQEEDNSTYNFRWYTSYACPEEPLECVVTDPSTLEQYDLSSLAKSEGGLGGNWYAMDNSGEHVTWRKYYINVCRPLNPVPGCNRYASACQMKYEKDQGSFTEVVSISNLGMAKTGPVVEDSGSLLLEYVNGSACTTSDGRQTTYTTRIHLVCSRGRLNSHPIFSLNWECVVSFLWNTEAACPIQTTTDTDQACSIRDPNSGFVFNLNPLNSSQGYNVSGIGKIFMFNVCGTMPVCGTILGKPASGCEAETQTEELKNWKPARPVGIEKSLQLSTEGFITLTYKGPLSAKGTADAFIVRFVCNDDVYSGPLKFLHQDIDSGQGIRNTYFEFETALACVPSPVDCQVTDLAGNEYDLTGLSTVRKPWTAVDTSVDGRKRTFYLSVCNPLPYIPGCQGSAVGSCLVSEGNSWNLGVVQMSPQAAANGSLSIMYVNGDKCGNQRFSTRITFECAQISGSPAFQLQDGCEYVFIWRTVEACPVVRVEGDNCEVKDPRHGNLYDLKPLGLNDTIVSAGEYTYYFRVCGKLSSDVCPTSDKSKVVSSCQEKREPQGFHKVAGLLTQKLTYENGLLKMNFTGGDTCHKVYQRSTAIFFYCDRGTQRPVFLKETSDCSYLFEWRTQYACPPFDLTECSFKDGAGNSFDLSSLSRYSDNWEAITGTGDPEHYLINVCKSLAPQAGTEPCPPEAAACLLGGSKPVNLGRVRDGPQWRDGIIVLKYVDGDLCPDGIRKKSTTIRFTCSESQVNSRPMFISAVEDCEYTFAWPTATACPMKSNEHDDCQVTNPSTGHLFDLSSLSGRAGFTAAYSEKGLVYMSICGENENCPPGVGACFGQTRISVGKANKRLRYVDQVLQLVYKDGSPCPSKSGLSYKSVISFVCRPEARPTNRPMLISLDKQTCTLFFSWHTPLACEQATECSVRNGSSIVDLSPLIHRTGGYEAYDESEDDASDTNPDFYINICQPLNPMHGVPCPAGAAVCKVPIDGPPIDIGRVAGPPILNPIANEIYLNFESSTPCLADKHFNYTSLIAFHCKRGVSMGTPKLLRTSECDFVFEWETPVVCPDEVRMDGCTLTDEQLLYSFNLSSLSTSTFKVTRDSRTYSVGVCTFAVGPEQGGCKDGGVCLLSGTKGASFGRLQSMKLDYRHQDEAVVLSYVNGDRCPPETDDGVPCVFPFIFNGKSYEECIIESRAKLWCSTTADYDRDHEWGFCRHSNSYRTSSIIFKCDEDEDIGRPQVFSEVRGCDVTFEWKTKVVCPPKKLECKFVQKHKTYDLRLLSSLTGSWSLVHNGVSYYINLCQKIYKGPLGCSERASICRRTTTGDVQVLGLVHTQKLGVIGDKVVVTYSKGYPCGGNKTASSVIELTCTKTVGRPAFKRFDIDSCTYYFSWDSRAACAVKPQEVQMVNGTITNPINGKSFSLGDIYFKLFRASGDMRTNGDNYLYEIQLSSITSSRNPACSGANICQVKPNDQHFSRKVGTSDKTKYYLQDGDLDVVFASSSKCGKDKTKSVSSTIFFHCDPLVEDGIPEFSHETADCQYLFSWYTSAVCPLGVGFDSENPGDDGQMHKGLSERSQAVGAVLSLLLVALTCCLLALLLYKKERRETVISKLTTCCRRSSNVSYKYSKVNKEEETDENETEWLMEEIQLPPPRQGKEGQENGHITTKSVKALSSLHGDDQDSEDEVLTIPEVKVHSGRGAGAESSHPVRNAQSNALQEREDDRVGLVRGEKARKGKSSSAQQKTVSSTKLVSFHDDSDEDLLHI

Experiments:
[1] = molecular target: 3xFLAG-tagged full-length LRRK2 (pCHMWS-3xflag-LRRK2) (UniProt Q5S007); experiment: co-IP; HEK293FT transfected with 3xFLAG-tagged bait; lysate in 20 mM Tris-HCl pH 7.5, 150 mM NaCl, 1 mM EDTA, 0.3% Triton X-100, 10% glycerol; anti-flag M2 agarose 1 h at 4°C; eluted with 3xflag peptide; blotted for endogenous partners; mock and FLAG-GUS as negative controls
[2] = molecular target: T1, 3xFLAG-tagged full-length RAB29 (p3x-flag-HD-DEST-RAB29) (UniProt O14966); experiment: as above
T1 sequence: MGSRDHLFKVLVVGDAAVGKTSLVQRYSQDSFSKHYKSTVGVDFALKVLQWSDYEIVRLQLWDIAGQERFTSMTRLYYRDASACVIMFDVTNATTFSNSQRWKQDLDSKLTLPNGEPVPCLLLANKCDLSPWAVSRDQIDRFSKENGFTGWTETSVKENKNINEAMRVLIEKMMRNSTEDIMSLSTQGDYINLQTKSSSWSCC

[3] = molecular target: T2, 3xFLAG-tagged full-length VPS52 (p3x-flag-HD-DEST-VPS52) (UniProt Q8N1B4); experiment: as above
T2 sequence: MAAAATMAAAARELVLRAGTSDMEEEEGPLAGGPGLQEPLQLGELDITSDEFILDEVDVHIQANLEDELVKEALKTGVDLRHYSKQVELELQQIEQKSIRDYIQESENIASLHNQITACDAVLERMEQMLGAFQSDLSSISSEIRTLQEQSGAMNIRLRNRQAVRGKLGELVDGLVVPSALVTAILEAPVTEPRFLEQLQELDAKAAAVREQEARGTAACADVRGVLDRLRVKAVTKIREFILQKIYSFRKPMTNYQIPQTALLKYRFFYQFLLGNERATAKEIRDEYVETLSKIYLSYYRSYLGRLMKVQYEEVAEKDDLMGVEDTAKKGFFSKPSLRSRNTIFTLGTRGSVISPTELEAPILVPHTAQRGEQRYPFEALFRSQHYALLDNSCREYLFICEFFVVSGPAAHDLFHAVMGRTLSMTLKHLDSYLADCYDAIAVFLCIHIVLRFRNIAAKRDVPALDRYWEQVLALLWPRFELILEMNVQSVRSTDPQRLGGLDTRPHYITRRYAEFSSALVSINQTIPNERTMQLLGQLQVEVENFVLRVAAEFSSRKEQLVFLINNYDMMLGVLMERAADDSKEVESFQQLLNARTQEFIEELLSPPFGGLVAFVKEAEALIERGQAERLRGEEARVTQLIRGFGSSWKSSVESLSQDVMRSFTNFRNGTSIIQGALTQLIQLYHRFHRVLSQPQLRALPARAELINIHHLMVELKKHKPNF

[4] = molecular target: T3, GFP-Syntaxin6 (pEGFP-STX6) (UniProt O43752); experiment: co-IP; HEK293FT transfected with GFP-tagged VAMP4 or Syntaxin-6 (GFP alone as control); GFP-Trap agarose 1 h at 4°C; blotted for endogenous partners; for VPS52 also after siRNA against LRRK2 or RAB29 or a non-targeting control
T3 sequence: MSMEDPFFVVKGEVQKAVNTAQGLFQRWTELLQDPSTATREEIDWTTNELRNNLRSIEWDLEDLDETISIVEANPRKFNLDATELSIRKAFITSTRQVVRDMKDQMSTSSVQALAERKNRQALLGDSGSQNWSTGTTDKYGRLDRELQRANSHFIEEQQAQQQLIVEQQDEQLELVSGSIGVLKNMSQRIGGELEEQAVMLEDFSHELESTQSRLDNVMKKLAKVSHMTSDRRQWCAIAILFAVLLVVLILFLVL

GFP-VAMP4 (pEGFP-VAMP4) [5] = molecular target: T4, GFP-VAMP4 (pEGFP-VAMP4) (UniProt O75379); experiment: as above
T4 sequence: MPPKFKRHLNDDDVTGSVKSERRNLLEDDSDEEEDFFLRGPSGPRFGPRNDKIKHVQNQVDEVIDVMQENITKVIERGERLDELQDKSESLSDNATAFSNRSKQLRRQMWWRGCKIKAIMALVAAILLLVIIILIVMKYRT

[6] = molecular target: T3, GFP-Syntaxin6 (pEGFP-STX6); experiment: as above; remark: listed apart in the source
GFP-VAMP4 (pEGFP-VAMP4) [7] = molecular target: T4, GFP-VAMP4 (pEGFP-VAMP4); experiment: as above; remark: listed apart in the source
[8] = molecular target: 3xFLAG-tagged full-length LRRK2 (pCHMWS-3xflag-LRRK2) (UniProt Q5S007); experiment: co-IP; mapping: full-length LRRK2 and LRRK2 domain constructs in cells, blotted for endogenous VPS52 (Figure S2A); tags and beads not told for this experiment
[9] = molecular target: 3xFLAG-tagged full-length LRRK2 (pCHMWS-3xflag-LRRK2) (UniProt Q5S007); experiment: co-IP; HEK293FT transfected with 3xFLAG-tagged bait; lysate in 20 mM Tris-HCl pH 7.5, 150 mM NaCl, 1 mM EDTA, 0.3% Triton X-100, 10% glycerol; anti-flag M2 agarose 1 h at 4°C; eluted with 3xflag peptide; blotted for endogenous partners; mock and FLAG-GUS as negative controls; remark: listed apart in the source
[10] = molecular target: T1, 3xFLAG-tagged full-length RAB29 (p3x-flag-HD-DEST-RAB29); experiment: as above; remark: listed apart in the source

binding [1]: binds | binding [2]: binds | binding [3]: binds
Molecule: endogenous CI-M6PR (from UniProt P11717 41-2491) (receptor)

binding [8]: binds | binding [6]: binds | binding [9]: binds | binding [10]: binds
B2: endogenous VPS52 (protein, UniProt Q8N1B4 1-723)
chain: MAAAATMAAAARELVLRAGTSDMEEEEGPLAGGPGLQEPLQLGELDITSDEFILDEVDVHIQANLEDELVKEALKTGVDLRHYSKQVELELQQIEQKSIRDYIQESENIASLHNQITACDAVLERMEQMLGAFQSDLSSISSEIRTLQEQSGAMNIRLRNRQAVRGKLGELVDGLVVPSALVTAILEAPVTEPRFLEQLQELDAKAAAVREQEARGTAACADVRGVLDRLRVKAVTKIREFILQKIYSFRKPMTNYQIPQTALLKYRFFYQFLLGNERATAKEIRDEYVETLSKIYLSYYRSYLGRLMKVQYEEVAEKDDLMGVEDTAKKGFFSKPSLRSRNTIFTLGTRGSVISPTELEAPILVPHTAQRGEQRYPFEALFRSQHYALLDNSCREYLFICEFFVVSGPAAHDLFHAVMGRTLSMTLKHLDSYLADCYDAIAVFLCIHIVLRFRNIAAKRDVPALDRYWEQVLALLWPRFELILEMNVQSVRSTDPQRLGGLDTRPHYITRRYAEFSSALVSINQTIPNERTMQLLGQLQVEVENFVLRVAAEFSSRKEQLVFLINNYDMMLGVLMERAADDSKEVESFQQLLNARTQEFIEELLSPPFGGLVAFVKEAEALIERGQAERLRGEEARVTQLIRGFGSSWKSSVESLSQDVMRSFTNFRNGTSIIQGALTQLIQLYHRFHRVLSQPQLRALPARAELINIHHLMVELKKHKPNF

Further lines, the molecule ahead of its results:

Molecule: endogenous LRRK2 (from UniProt Q5S007 1-2527)
binding [4]: binds | binding (GFP-VAMP4 (pEGFP-VAMP4) [5]): binds | binding [2]: binds | binding [3]: binds

B1: endogenous RAB29 (protein, UniProt O14966 1-203)
chain: MGSRDHLFKVLVVGDAAVGKTSLVQRYSQDSFSKHYKSTVGVDFALKVLQWSDYEIVRLQLWDIAGQERFTSMTRLYYRDASACVIMFDVTNATTFSNSQRWKQDLDSKLTLPNGEPVPCLLLANKCDLSPWAVSRDQIDRFSKENGFTGWTETSVKENKNINEAMRVLIEKMMRNSTEDIMSLSTQGDYINLQTKSSSWSCC
binding [6]: no binding | binding (GFP-VAMP4 (pEGFP-VAMP4) [7]): no binding
